# Measurements as given in PubChem BioAssay AID488969 (Vanderbilt High Throughput Screening Facility, 2010).
# In all, about 110,000 compounds were measured (“z-score”: median about -0.1, highest 2% from about 2 on). The list shows a part of the results. The source made the active and inactive calls.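 Rule for the calls: active = z-score in the third read window above 3 or below -3; inactive = the rest.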
# Biological target: Metabotropic glutamate receptor 8 (Rattus norvegicus) (UniProt P70579)
# Experiment: mGluR8 Gi/Go-coupled signaling modulation – cell-based, rat, thallium flux, HTS, primary screen (AID 488969)
# Details: HEK293 rat mGluR8, GIRK (G protein-gated inwardly rectifying potassium channel) thallium flux, FluoZin2; at 10 µM; stronger effect = higher value; submaximal glutamate (EC20) added with thallium
# UniProt P70579, sequence (P70579 whole entry, looked up): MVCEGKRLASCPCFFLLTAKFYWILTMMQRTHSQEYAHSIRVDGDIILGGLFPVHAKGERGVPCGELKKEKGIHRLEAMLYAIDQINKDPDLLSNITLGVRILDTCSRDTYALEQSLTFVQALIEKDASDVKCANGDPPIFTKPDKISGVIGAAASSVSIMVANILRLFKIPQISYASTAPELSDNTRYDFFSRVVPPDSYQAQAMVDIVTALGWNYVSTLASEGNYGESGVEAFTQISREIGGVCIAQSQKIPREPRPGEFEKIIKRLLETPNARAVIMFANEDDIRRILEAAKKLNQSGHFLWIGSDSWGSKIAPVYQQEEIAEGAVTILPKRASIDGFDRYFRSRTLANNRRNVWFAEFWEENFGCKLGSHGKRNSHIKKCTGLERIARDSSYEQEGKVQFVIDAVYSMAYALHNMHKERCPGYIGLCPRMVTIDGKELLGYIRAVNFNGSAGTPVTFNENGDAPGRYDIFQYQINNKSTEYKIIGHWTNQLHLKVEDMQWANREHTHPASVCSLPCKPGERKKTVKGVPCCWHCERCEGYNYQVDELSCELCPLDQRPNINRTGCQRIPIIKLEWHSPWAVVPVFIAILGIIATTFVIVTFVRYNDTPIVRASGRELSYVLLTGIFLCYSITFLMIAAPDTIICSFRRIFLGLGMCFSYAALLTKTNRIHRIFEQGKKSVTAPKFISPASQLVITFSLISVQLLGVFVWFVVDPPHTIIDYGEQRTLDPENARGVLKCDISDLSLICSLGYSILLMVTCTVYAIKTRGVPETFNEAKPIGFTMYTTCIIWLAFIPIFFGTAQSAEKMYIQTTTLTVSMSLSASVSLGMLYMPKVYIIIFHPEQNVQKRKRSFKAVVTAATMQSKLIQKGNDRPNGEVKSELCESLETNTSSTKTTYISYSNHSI
row,SMILES,z-score
1,CCc1cc2c(=O)c(-c3nc4ccccc4n3C)coc2c(CN2CCN(C)CC2)c1O,-0.324
2,COc1ccc(NC(=O)/C(=C/c2ccc(OC(C)=O)c(OC)c2)NC(C)=O)cc1,-0.216
3,CCOC(=O)C1=C(C)NC(=O)C(C(N)=O)C1c1ccccc1 (stereo unspecified),0.0883
4,CN(CCCNC(=O)C1CCCN(S(=O)(=O)c2cnc[nH]2)C1)c1ccccc1 (stereo unspecified),0.133
5,Cc1ccc(Oc2ncnc3sccc23)cc1,0.102
6,CCc1ccc(NC(=O)c2noc3c2CCC3)cc1,0.285
7,O=C(Cn1c(SCc2ccccc2)nc2ccccc21)N1CCOCC1,-0.096
8,CN(Cc1cccc(Cl)c1Cl)C(=O)c1ccc(NC(=O)CC#N)cc1,-0.558
9,CN1CCCC(CC2Oc3ccccc3Sc3ccccc32)C1 (stereo unspecified),0.766
10,COc1ccc2c3c(c(=O)oc2c1OCC(N)=O)CCCC3,-0.489
11,Nc1nonc1NC(=O)CSc1nc2ccccc2s1,-0.00432
12,CCOC(=O)c1c(/N=C/N(C)C)sc(C(=O)OC)c1C,0.721
13,CC(C)(C)NC(=O)COC(=O)c1snc(C(=O)NC2CCCCC2)c1N,0.25
14,Cc1nc(Nc2c(Cl)cccc2Cl)sc1C(=O)Nc1ccccc1,-0.0239
15,O=S(=O)(c1ccc(F)cc1)n1ccc2cccnc21,-0.0458
16,CCCCC(=O)NC(c1cccc([N+](=O)[O-])c1)c1c(OC(C)=O)ccc2ccccc12 (stereo unspecified),-0.98
17,COc1c(F)c(F)c(C(=O)Nc2ccc(N3CCN(Cc4ccccc4)CC3)cc2)c(F)c1F,-0.191
18,COc1cccc(OCCn2cc(/C=N/NC(=O)c3ccncc3)c3ccccc32)c1,0.0038
19,Cn1c(=O)c2c(ncn2CC(=O)N2CCN(c3ccc(F)cc3)CC2)n(C)c1=O,-0.244
20,CCc1ccccc1NC(=O)CN(C)C(=O)Cn1ncc(Cl)c(Cl)c1=O,0.269
21,CCCCNC(=O)c1onc(CSc2ccc(Cl)cc2)c1C(=O)O,-0.552
22,Cc1ccccc1OCC(=O)NNC(=S)NC(=O)c1ccco1,active: 8.07
23,CCn1cnc2cc(NCc3nc4ccccc4n3Cc3ccccc3)ccc21,-0.34

row,SMILES,z-score
1,O=C(CSc1nnc(NC2CCCCC2)s1)NN1C(=O)NC2(CCCCC2)C1=O,0.151
2,CC(=O)Nc1ccc2c(c1)nc(CCNC(=O)c1ccccc1)n2C,-0.205
3,COc1cc(NC(=O)CN2C(=O)NC(c3ccccc3)(c3ccccc3)C2=O)c(C)cc1[N+](=O)[O-],-0.621
4,O=C(Nc1ncc(Br)s1)C(Cc1ccccc1)n1cccc1 (stereo unspecified),active: 7
5,NC(=O)CSc1nnc(-c2ccco2)n1N,0.137
6,COCCn1c(SCc2nc3ccccc3c(=O)[nH]2)nnc1-c1ccncc1,0.00578
7,O=C(NNC(=O)c1ccccc1Cl)c1cccs1,0.286
8,O=C(NC(=S)N(CCc1ccccc1)CCc1ccccc1)c1ccco1,-1.87
9,C=CCNC(=S)N/N=C/c1ccc(-c2cc(Cl)ccc2Cl)o1,0.31
10,Cc1cc(N2CCOCC2)c2c(N)c(C)cc(C)c2n1,0.0623
11,CCCCc1c(C)nc(Nc2ccc(OC)cc2)[nH]c1=O,-0.449
12,O=C(NCC1COc2ccccc2O1)C1CCCN(S(=O)(=O)c2cccc3nsnc23)C1 (stereo unspecified),0.528
13,CCCCn1c(N)nc2ccccc21,-0.706
14,COc1cccc(C(C(=O)NC2CCCC2)N(Cc2ccc(C)cc2)C(=O)c2ccco2)c1OC (stereo unspecified),-0.348
15,COc1ccc(N2C(=O)CC(SCCc3nc4ccccc4[nH]3)C2=O)cc1 (stereo unspecified),-0.0147
16,COc1cccc(Nc2nc(=O)[nH]nc2C)c1,-0.171
17,Cc1ccc(CNC(=O)c2ccc([N+](=O)[O-])o2)cc1,-0.291
18,CC(C)NC(=O)C(Cc1ccccc1)N1C(=O)c2ccccc2C1=O (stereo unspecified),-0.79
19,O=C(COc1ccc(F)cc1)NCC1CCCO1 (stereo unspecified),0.0433
20,CC1=CC(=O)C=CC1(C)C(Cl)Cl (stereo unspecified),-0.0822
21,CCc1cc2cc3c(cc2nc1SCC(=O)Nc1nnc(C)s1)OCCO3,0.803
22,CCCCNC(=O)CC1C(=O)N(Cc2ccccc2)C(C)c2nc3ccccc3n21 (stereo unspecified),-0.0491
23,COc1ccccc1C1C=C(c2ccc(Cl)cc2)Nc2nc(NS(C)(=O)=O)nn21 (stereo unspecified),-0.156

row,SMILES,z-score
1,C=CCn1c(=NC(=O)CN2C(=O)CCC2=O)sc2cccc(OC)c21,0.0668
2,COc1ccccc1Nc1nc(-c2c(C)[nH]c3ccccc23)cs1,-0.196
3,Cc1cccc(NC(=O)CN2C(=O)N/C(=C/c3cc(C)n(C(C)C)c3C)C2=O)c1,-0.148
4,CC(=O)Oc1ccc(C2OC(=O)c3ccccc3N2C(C)=O)cc1 (stereo unspecified),-1.82
5,CC(=O)Nc1ccc(N2C(=O)CSC2c2c(F)cccc2Cl)cc1 (stereo unspecified),-0.181
6,COc1ccc2c(c1)c(CC(=O)Nc1ccc(C)cc1)c(C)n2C(=O)c1ccc(Cl)cc1,-0.284
7,Cc1cccc(N2CCN(C(c3ccccc3)c3nnnn3CC3CCCO3)CC2)c1C (stereo unspecified),0.735
8,COCCNC(=O)C(c1ccc(O)cc1)N(Cc1ccco1)C(=O)CCC(=O)Nc1nccs1 (stereo unspecified),0.231
9,COc1cccc(C(=O)N2CCN(CCCc3ccccc3)CC2)c1OC,-0.632
10,COc1ccc(/C=N/NC(=O)Cn2nc(C)c([N+](=O)[O-])c2C)cc1,-1.01
11,O=C(c1cnc2n(c1=O)CCS2)N(C1CCCCC1)C1CCCCC1,-0.0183
12,CC/C(=N/Nc1ccccc1Cl)c1cnnc(-c2ccccc2)n1,0.658
13,O=C(Oc1ccc(/C=N/NC(=O)c2ccccc2O)cc1)c1ccccc1,-0.24
14,CCOC(=O)c1c(NC(=O)CN(C)C)sc(C(=O)N(CC)CC)c1C,-0.0791
15,Cc1cc(C)nc(N/N=C/c2ccco2)n1,-0.139
16,O=c1[nH]c2ccccc2n1CCC1CCCCC1,active: 5.05
17,OC(COc1ccccc1)CN1C2=NCCCN2c2ccccc21 (stereo unspecified),0.279
18,CCCOc1cccc(C(=O)Nc2cc(NC(=O)c3ccco3)ccc2OC)c1,0.313
19,CCCOc1ccc(-c2c(C(=O)N/N=C/c3ccc(OC)cc3)nnn2-c2nonc2N)cc1,0.265
20,COc1ccc(-n2c(Cc3cc(=O)[nH]c(=O)[nH]3)nnc2SCC(=O)N2CCCC2)cc1,-0.287
21,O=C1CCCN1c1ccc(S(=O)(=O)N2CCC(c3ccccc3)CC2)cc1,0.366
22,Cc1ccc(NC(=O)C2C(C(=O)O)C3C=CC2C32CC2)cc1 (stereo unspecified),-0.135
23,COc1ccc(-c2cc(C(F)(F)F)nc(SCCC(=O)N3CCOCC3)n2)cc1,-0.718

row,SMILES,z-score
1,CCOC(=O)c1sc(NC(=O)c2cc(-c3ccccc3C)nc3ccccc23)c(C#N)c1C,-0.634
2,CC(C)(C)OC(=O)N1CCC[C@H]1c1nnc(SCc2ccc(Cl)cc2Cl)o1,-0.00439
3,CCOC(=O)N1CCN(C(=O)C2c3cc(OC)c(OC)cc3C(=O)N3CCc4ccccc4C23)CC1 (stereo unspecified),-0.276
4,CCOn1c(=O)c(-c2cccs2)[n+]([O-])c2ccccc21,-2.21
5,O=C(Nc1nncs1)Oc1ccccc1,0.57
6,O=C1NC2=C(C(=O)CCC2)C(c2ccc3ncccc3c2)N1 (stereo unspecified),-0.0523
7,C/C(CC(=O)Nc1cc(C)ccn1)=N\NC(=O)C(=O)Nc1cccc(C)c1,0.277
8,O=C(NCc1ccc2c(c1)OCO2)Oc1ccccc1,-0.064
9,Cc1nn2c(N)c(C#N)cnc2c1-c1ccccc1,-0.302
10,O=C(CSc1nc(-c2ccccc2)c(-c2ccccc2)[nH]1)NCCN1C(=O)CSC1=O,-0.808
11,Cc1ccc(C(=O)Nc2cc(Cl)ccc2N2CCCCC2)s1,-1.11
12,CCOc1ccccc1C(=O)N1CCN(C(c2ccccc2)c2ccccc2)CC1,-0.12
13,Cc1ccc(C(C)C)c(OCC(O)CN2CCN(CCO)CC2)c1 (stereo unspecified),-0.466
14,COc1ccccc1CC(=O)Nc1ccc(OC)c(OC)c1,-0.605
15,CCCOc1ccc(/C=N/NC(=O)C2CCCN2S(=O)(=O)c2ccc(Cl)cc2)cc1 (stereo unspecified),0.183
16,CCOc1ccc(S(=O)(=O)Nc2ccc(S(=O)(=O)Nc3cc(OC)ccc3OC)cc2)cc1,-0.209
17,CCN(CC)S(=O)(=O)c1ccc(Cl)c(C(=O)NC)c1,0.574
18,Cc1cccc(NC(=O)CS(=O)(=O)Cc2ccccc2)n1,-0.17
19,O=C(c1csc2c1CCCCC2)N1CCN(c2ncccn2)CC1,-1.53
20,COc1ccccc1N1CCN(C(=O)c2ccc(S(=O)(=O)N3CCCCCC3)cc2)CC1,-0.714
21,Cc1c(NC(=O)C(C)Sc2ccc3ccccc3n2)c(=O)n(-c2ccccc2)n1C (stereo unspecified),0.238
22,CCOC(=O)C1=C(Nc2ccccc2)OCC1=O,-0.0728
23,CCN(C(=O)CN1CCN(c2ccccc2O)CC1)c1c(N)n(Cc2ccccc2)c(=O)[nH]c1=O,active: 14.3

row,SMILES,z-score
1,Cn1nc(C(=O)NCc2cccs2)c2ccccc2c1=O,-0.226
2,Cc1cc(C)c(NC(=O)C(C)c2cccc(C(=O)c3ccccc3)c2)c(C)c1 (stereo unspecified),-0.519
3,Cc1nc(NC(=O)c2ccccc2)sc1-c1csc(NCCc2ccccc2)n1,0.0397
4,Cc1sc(NC(=O)c2cc(-c3ccc(Cl)cc3)nc3ccccc23)c(C(N)=O)c1C,-0.126
5,CSCCC(NC(N)=O)C(=O)N(C)CC(=O)Nc1ccc(C)cc1 (stereo unspecified),0.191
6,C=CCn1c2ccccc2c2nnc(SCC(=O)OCN3C(=O)c4ccccc4C3=O)nc21,-0.529
7,CCCCNC(=O)c1cc2c(-c3ccc(Cl)cc3)nn(C)c2s1,-0.213
8,Cc1cnc(NC(=O)CSc2nnc(-c3ccc(Cl)cc3Cl)n2N)s1,-0.296
9,COc1ccc2nc(NC(C)=O)sc2c1,-0.0562
10,COc1ccccc1C(=O)N1CCN=C1c1ccccc1,-0.0756
11,CS(=O)(=O)N(CC(=O)O)c1ccc2c(c1)OCO2,-2.86
12,CCOC(=O)c1ccc(Oc2cc(C)nc(SC)n2)cc1,-0.937
13,O=S(=O)(c1cccs1)N1CCN(Cc2nc3ccccc3s2)CC1,0.00246
14,COc1cccc(OCCn2ccnc2)c1,0.0176
15,CC(=O)C1C(c2ccc(Br)cc2)C2C(C)=NN=C2CC1(C)O (stereo unspecified),-0.0546
16,Fc1cc(F)c2nc(N3CCCCC3)sc2c1,-0.14
17,CSc1cccc(NC(=O)CN(C)S(=O)(=O)c2ccccc2)c1,-0.0254
18,O=C(CSc1n[nH]c(-c2ccccc2)n1)Nc1ccc(Br)cn1,-0.176
19,Cc1[nH]c2ccccc2c1C(=O)/C=C/c1ccccc1,-0.0814
